Measured values: the supplement of paper PMC4967469
IC50 is the fitted dose that halves viability relative to control wells, and lower means more sensitive; where the fit passes the top or lowest dose, that dose stands as a limit. The AUC spans the tested range (256-fold, ending at the top dose) of the same fit; it is 1 without any effect and falls as sensitivity rises. An inferred top dose was calculated from the reported fits.

Tests used:
Test in all cases: Viability of human cancer cell lines after 72 h of drug (GDSC screen)
NG-25 = compound: CCN1CCN(Cc2ccc(NC(=O)c3ccc(C)c(Oc4ccnc5[nH]ccc45)c3)cc2C(F)(F)F)CC1 [NG-25]; settings: top dose 10.24 µM; top dose inferred
Procedure: (§1)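 Human cancer cell lines in 384-well plates, medium with 10% serum, drug for 72 h over a 256-fold dose range (nine 2-fold or five 4-fold steps up to the top dose). Adherent lines were fixed and stained with the nucleic acid dye Syto60, suspension lines read with resazurin; signal relative to control wells, capped at 0 and 100%. One two-parameter sigmoid per drug and line, fitted in a mixed model over all curves with the slope shared within a line.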

GSK-1904529A = compound: CCc1cc(Nc2nccc(-c3c(-c4ccc(OC)c(C(=O)Nc5c(F)cccc5F)c4)nc4ccccn34)n2)c(OC)cc1N1CCC(N2CCN(S(C)(=O)=O)CC2)CC1 [GSK-1904529A]; settings: top dose 1.024 µM; top dose inferred
Procedure: as §1

Tipifarnib = compound: Cn1cncc1[C@@](N)(c1ccc(Cl)cc1)c1ccc2c(c1)c(-c1cccc(Cl)c1)cc(=O)n2C [Tipifarnib]; settings: top dose 16 µM; top dose inferred
Procedure: as §1

PFI-1 = compound: COc1ccccc1S(=O)(=O)Nc1ccc2c(c1)CN(C)C(=O)N2 [PFI-1]; settings: top dose 10 µM; top dose inferred
Procedure: as §1

EKB-569 = compound: CCOc1cc2ncc(C#N)c(Nc3ccc(F)c(Cl)c3)c2cc1NC(=O)/C=C/CN(C)C [EKB-569]; settings: top dose inferred
Procedure: as §1

## 201T (lung adenocarcinoma, adherent)
NG-25
  AUC: 0.898
  IC50: > 10.2 µM
GSK-1904529A
  AUC: 0.93
  IC50: > 1.02 µM
Tipifarnib
  AUC: 0.628
  IC50: 2.47 µM

## A375 (melanoma, adherent)
PFI-1
  AUC: 0.833
  IC50: 4.92 µM
Tipifarnib
  AUC: 0.435
  IC50: 0.688 µM

## BICR31 (head and neck, adherent)
NG-25
  AUC: 0.98
  IC50: > 10.2 µM
GSK-1904529A
  AUC: 0.983
  IC50: > 1.02 µM
Tipifarnib
  AUC: 0.605
  IC50: 1.95 µM

## BxPC-3 (pancreas, adherent)
NG-25
  AUC: 0.857
  IC50: 10 µM
PFI-1
  AUC: 0.796
  IC50: 5.35 µM
Tipifarnib
  AUC: 0.645
  IC50: 2.66 µM

## G-MEL (melanoma, adherent)
NG-25
  AUC: 0.853
  IC50: 7.87 µM
GSK-1904529A
  AUC: 0.981
  IC50: > 1.02 µM
PFI-1
  AUC: 0.726
  IC50: 2.71 µM

## H290 (mesothelioma, adherent)
GSK-1904529A
  AUC: 0.987
  IC50: > 1.02 µM
PFI-1
  AUC: 0.825
  IC50: 5.33 µM
Tipifarnib
  AUC: 0.872
  IC50: 13.1 µM

## HuH-7 (liver, adherent)
GSK-1904529A
  AUC: 0.965
  IC50: > 1.02 µM
PFI-1
  AUC: 0.925
  IC50: > 10 µM
Tipifarnib
  AUC: 0.767
  IC50: 5.94 µM

## JHU-029 (head and neck, adherent)
GSK-1904529A
  AUC: 0.948
  IC50: > 1.02 µM
PFI-1
  AUC: 0.868
  IC50: > 10 µM
Tipifarnib
  AUC: 0.433
  IC50: 0.629 µM

## KP-1N (pancreas, adherent)
GSK-1904529A
  AUC: 0.948
  IC50: > 1.02 µM
PFI-1
  AUC: 0.897
  IC50: > 10 µM
Tipifarnib
  AUC: 0.567
  IC50: 1.54 µM

## NCI-H358 (lung adenocarcinoma, adherent)
GSK-1904529A
  AUC: 0.98
  IC50: > 1.02 µM
PFI-1
  AUC: 0.947
  IC50: > 10 µM
Tipifarnib
  AUC: 0.743
  IC50: 5.43 µM

## SCC90 (head and neck, adherent)
GSK-1904529A
  AUC: 0.946
  IC50: > 1.02 µM
PFI-1
  AUC: 0.921
  IC50: > 10 µM
Tipifarnib
  AUC: 0.692
  IC50: 4.39 µM

## STS-0421 (soft tissue, adherent)
GSK-1904529A
  AUC: 0.963
  IC50: > 1.02 µM
PFI-1
  AUC: 0.81
  IC50: 6.36 µM
Tipifarnib
  AUC: 0.758
  IC50: 6.4 µM

## SW1573 (lung adenocarcinoma, adherent)
NG-25
  AUC: 0.979
  IC50: > 10.2 µM
GSK-1904529A
  AUC: 0.98
  IC50: > 1.02 µM
PFI-1
  AUC: 0.881
  IC50: > 10 µM

## TGBC1TKB (biliary tract, adherent, top dose 2.5 µM)
EKB-569
  AUC: 0.976
  IC50: > 2.5 µM

## TGBC11TKB (stomach, adherent, top dose 2.5 µM)
EKB-569
  AUC: 0.991
  IC50: > 2.5 µM

## TGBC24TKB (biliary tract, adherent, top dose 2.5 µM)
EKB-569
  AUC: 0.948
  IC50: > 2.5 µM

## TGW (neuroblastoma, adherent, top dose 2.5 µM)
EKB-569
  AUC: 0.947
  IC50: > 2.5 µM

## THP-1 (acute myeloid leukaemia, suspension, top dose 2.5 µM)
EKB-569
  AUC: 0.124
  IC50: 0.0119 µM

## TK10 (kidney, adherent, top dose 2.5 µM)
EKB-569
  AUC: 0.854
  IC50: > 2.5 µM

## TK (B-cell lymphoma, suspension, top dose 2.5 µM)
EKB-569
  AUC: 0.95
  IC50: > 2.5 µM

## TMK-1 (stomach, adherent, top dose 2.5 µM)
EKB-569
  AUC: 0.985
  IC50: > 2.5 µM

## TOV-21G (ovary, adherent, top dose 2.5 µM)
EKB-569
  AUC: 0.817
  IC50: 1.56 µM

## TOV-112D (ovary, adherent, top dose 2.5 µM)
EKB-569
  AUC: 0.791
  IC50: 1.13 µM

## TT2609-C02 (thyroid, adherent, top dose 2.5 µM)
EKB-569
  AUC: 0.871
  IC50: > 2.5 µM

## TT (thyroid, adherent, top dose 2.5 µM)
EKB-569
  AUC: 0.982
  IC50: > 2.5 µM

## TUR (B-cell lymphoma, suspension, top dose 2.5 µM)
EKB-569
  AUC: 0.65
  IC50: 0.393 µM

## TYK-nu (ovary, adherent, top dose 2.5 µM)
EKB-569
  AUC: 0.985
  IC50: > 2.5 µM

## U031 (kidney, adherent, top dose 2.5 µM)
EKB-569
  AUC: 0.903
  IC50: > 2.5 µM

## U251 (glioma, adherent, top dose 2.5 µM)
EKB-569
  AUC: 0.917
  IC50: > 2.5 µM

## U-2-OS (osteosarcoma, adherent, top dose 2.5 µM)
EKB-569
  AUC: 0.916
  IC50: > 2.5 µM

## U-118-MG (glioma, adherent, top dose 2.5 µM)
EKB-569
  AUC: 0.98
  IC50: > 2.5 µM

## U-698-M (B-cell leukaemia, suspension, top dose 2.5 µM)
EKB-569
  AUC: 0.955
  IC50: > 2.5 µM

## UACC-62 (melanoma, adherent, top dose 2.5 µM)
EKB-569
  AUC: 0.979
  IC50: > 2.5 µM

## UACC-257 (melanoma, adherent, top dose 2.5 µM)
EKB-569
  AUC: 0.957
  IC50: > 2.5 µM

## UACC-812 (breast, adherent, top dose 2.5 µM)
EKB-569
  AUC: 0.965
  IC50: > 2.5 µM

## UACC-893 (breast, adherent, top dose 2.5 µM)
EKB-569
  AUC: 0.509
  IC50: 0.166 µM

## UM-UC-3 (bladder, adherent, top dose 2.5 µM)
EKB-569
  AUC: 0.869
  IC50: 2.06 µM

## UMC-11 (lung carcinoid, adherent, top dose 2.5 µM)
EKB-569
  AUC: 0.971
  IC50: > 2.5 µM

## UWB1.289 (ovary, adherent, top dose 2.5 µM)
EKB-569
  AUC: 0.883
  IC50: > 2.5 µM

## VA-ES-BJ (soft tissue, adherent, top dose 2.5 µM)
EKB-569
  AUC: 0.984
  IC50: > 2.5 µM

## VAL (B-cell lymphoma, suspension, top dose 2.5 µM)
EKB-569
  AUC: 0.793
  IC50: 1.15 µM

## VCaP (prostate, adherent, top dose 2.5 µM)
EKB-569
  AUC: 0.956
  IC50: > 2.5 µM

## VM-CUB-1 (bladder, adherent, top dose 2.5 µM)
EKB-569
  AUC: 0.953
  IC50: > 2.5 µM

## VMRC-MELG (melanoma, adherent, top dose 2.5 µM)
EKB-569
  AUC: 0.983
  IC50: > 2.5 µM

## VMRC-RCW (kidney, adherent, top dose 2.5 µM)
EKB-569
  AUC: 0.956
  IC50: > 2.5 µM

## VMRC-RCZ (kidney, adherent, top dose 2.5 µM)
EKB-569
  AUC: 0.845
  IC50: 2.28 µM

## WIL2-NS (lymphoid neoplasm, suspension, top dose 2.5 µM)
EKB-569
  AUC: 0.829
  IC50: 1.18 µM

## WM35 (melanoma, adherent, top dose 2.5 µM)
EKB-569
  AUC: 0.958
  IC50: > 2.5 µM

## WM278 (melanoma, adherent, top dose 2.5 µM)
EKB-569
  AUC: 0.982
  IC50: > 2.5 µM

## WM793B (melanoma, adherent, top dose 2.5 µM)
EKB-569
  AUC: 0.877
  IC50: > 2.5 µM

## WM1552C (melanoma, adherent, top dose 2.5 µM)
EKB-569
  AUC: 0.831
  IC50: 1.59 µM

## WM-115 (melanoma, adherent, top dose 2.5 µM)
EKB-569
  AUC: 0.853
  IC50: > 2.5 µM

## WSU-DLCL2 (B-cell lymphoma, suspension, top dose 2.5 µM)
EKB-569
  AUC: 0.916
  IC50: > 2.5 µM

## WSU-NHL (lymphoid neoplasm, suspension, top dose 2.5 µM)
EKB-569
  AUC: 0.95
  IC50: > 2.5 µM

## YAPC (pancreas, adherent, top dose 2.5 µM)
EKB-569
  AUC: 0.954
  IC50: > 2.5 µM

## YH-13 (glioma, adherent, top dose 2.5 µM)
EKB-569
  AUC: 0.937
  IC50: > 2.5 µM

## YKG-1 (glioma, adherent, top dose 2.5 µM)
EKB-569
  AUC: 0.946
  IC50: > 2.5 µM

## YMB-1-E (breast, adherent, top dose 2.5 µM)
EKB-569
  AUC: 0.975
  IC50: > 2.5 µM

## YT (lymphoid neoplasm, suspension, top dose 2.5 µM)
EKB-569
  AUC: 0.871
  IC50: 1.76 µM

## huH-1 (liver, adherent, top dose 2.5 µM)
EKB-569
  AUC: 0.977
  IC50: > 2.5 µM

## no-10 (glioma, adherent, top dose 2.5 µM)
EKB-569
  AUC: 0.947
  IC50: > 2.5 µM

## no-11 (glioma, adherent, top dose 2.5 µM)
EKB-569
  AUC: 0.881
  IC50: > 2.5 µM
